These compounds were tested on 10- to 14-day-old chicks of chair label JA657 strain (assay: Hypnotic and sedative effects in chicks (IM administration)). Details: 1 µmol/100 g IM, ranges = limit values of batch averages.

Row | Compound | Sedation time [min]
1 | 9-methoxy-1-p-nitrophenyl-2,3,4,6,7,12-hexahydroindolo[2,3-a] quinolizin-4-one [Example 17] | 38
2 | CCC1=C2c3[nH]c4cc(CC)c(OC)cc4c3CCN2C(=O)CC1 [Example 6, 9-methoxy-1,10-diethyl-2,3,4,6,7,12-hexahydroindolo[2,3-a] quinolizin-4-one] | 5
3 | CCC1=C2c3ccc4ccc(OC)cc4c3CCN2C(=O)CC1 [Example 9, 11-ethyl-3-methoxy-5,8,9, 10-tetrahydro-6H-benzo[f]pyrido[2,1-a]isoquinolin-8-one] | 16
4 | COc1ccc2[nH]c3c(c2c1)CCN1C(=O)CCC(c2ccc(C)cc2)=C31 [Example 18, 9-méthoxy-1-p-tolyl-2,3,4,6,7,12-hexahydroindolo[2,3-a] quinolizin-4-one] | 58
5 | COc1ccc2[nH]cc(CCNC(C)=O)c2c1 [Melatonin, N-acetyl-5-methoxytryptamine, reference compound] | 16 to 36
6 | CN1C(=O)CN=C(c2ccccc2)c2cc(Cl)ccc21 [Diazepam, reference compound] | 17 to 20

Same assay, conditions: 1.4 µmol/100 g IM

Row | Compound | Sedation time [min]
7 | COc1ccc2c3c([nH]c2c1)C(C)=NCC3 [Harmaline, harmaline, reference compound] | 0
8 | COc1ccc2[nH]c3c(c2c1)CCN=C3C [10-methoxyharmalan, reference compound] | 0

Same assay, conditions: 2 µmol/100 g IM, ranges = limit values of batch averages

Row | Compound | Sedation time [min]
9 | COc1ccc2[nH]cc(CCNC(C)=O)c2c1 [Melatonin, N-acetyl-5-methoxytryptamine, reference compound] | 47 to 105
10 | CCC1CCC(=O)N2CCc3c([nH]c4ccc(OC)cc34)C12 (stereo not drawn) [Example 8, 9-methoxy-1-ethyl-1,2,3,4,6,7,12,12b-octahydroindolo [2,3-a] quinolizin-4-one] | 37
11 | CN1C(=O)CN=C(c2ccccc2)c2cc(Cl)ccc21 [Diazepam, reference compound] | 14 to 15

Same assay, conditions: administration in the light phase between 14.00 h and 15.00 h

Row | Compound | hypnotic activity (in words)
12 | COc1ccc2[nH]cc(CCNC(C)=O)c2c1 [Melatonin, N-acetyl-5-methoxytryptamine, reference compound] | no hypnotic activity

Same assay, conditions: falling-asleep time, 0.5 µmol/100 g IM, NA = animals remained conscious, ranges = limit values of batch averages

Row | Compound | FAT [min]
13 | CN1C(=O)CN=C(c2ccccc2)c2cc(Cl)ccc21 [Diazepam, reference compound] | 3 to 6

Same assay, conditions: falling-asleep time, 1 µmol/100 g IM, NA = animals remained conscious, ranges = limit values of batch averages

Row | Compound | FAT [min]
14 | 9-methoxy-1-p-nitrophenyl-2,3,4,6,7,12-hexahydroindolo[2,3-a] quinolizin-4-one [Example 17] | 11
15 | CCC1=C2c3[nH]c4cc(CC)c(OC)cc4c3CCN2C(=O)CC1 [Example 6, 9-methoxy-1,10-diethyl-2,3,4,6,7,12-hexahydroindolo[2,3-a] quinolizin-4-one] | 8
16 | CCC1=C2c3ccc4ccc(OC)cc4c3CCN2C(=O)CC1 [Example 9, 11-ethyl-3-methoxy-5,8,9, 10-tetrahydro-6H-benzo[f]pyrido[2,1-a]isoquinolin-8-one] | 11
17 | COc1ccc2[nH]c3c(c2c1)CCN1C(=O)CCC(c2ccc(C)cc2)=C31 [Example 18, 9-méthoxy-1-p-tolyl-2,3,4,6,7,12-hexahydroindolo[2,3-a] quinolizin-4-one] | 5
18 | CCCC(C)C1(CC)C(=O)NC(=O)NC1=O (stereo not drawn) [Pentobarbital, reference compound] | 13
19 | CN1C(=O)CN=C(c2ccccc2)c2cc(Cl)ccc21 [Diazepam, reference compound] | 2 to 7

Same assay, conditions: falling-asleep time, 2 µmol/100 g IM, NA = animals remained conscious, ranges = limit values of batch averages

Row | Compound | FAT [min]
20 | CCC1CCC(=O)N2CCc3c([nH]c4ccc(OC)cc34)C12 (stereo not drawn) [Example 8, 9-methoxy-1-ethyl-1,2,3,4,6,7,12,12b-octahydroindolo [2,3-a] quinolizin-4-one] | 15
21 | CN1C(=O)CN=C(c2ccccc2)c2cc(Cl)ccc21 [Diazepam, reference compound] | 2 to 5

Same assay, conditions: sleep time, 0.5 µmol/100 g IM, ranges = limit values of batch averages

Row | Compound | ST [min]
22 | COc1ccc2[nH]cc(CCNC(C)=O)c2c1 [Melatonin, N-acetyl-5-methoxytryptamine, reference compound] | 0
23 | CCCC(C)C1(CC)C(=O)NC(=O)NC1=O (stereo not drawn) [Pentobarbital, reference compound] | 0
24 | CN1C(=O)CN=C(c2ccccc2)c2cc(Cl)ccc21 [Diazepam, reference compound] | 10 to 50

Same assay, conditions: sleep time, 1 µmol/100 g IM, ranges = limit values of batch averages

Row | Compound | ST [min]
25 | 9-methoxy-1-p-nitrophenyl-2,3,4,6,7,12-hexahydroindolo[2,3-a] quinolizin-4-one [Example 17] | 7
26 | CCC1=C2c3[nH]c4cc(CC)c(OC)cc4c3CCN2C(=O)CC1 [Example 6, 9-methoxy-1,10-diethyl-2,3,4,6,7,12-hexahydroindolo[2,3-a] quinolizin-4-one] | 102
27 | CCC1=C2c3ccc4ccc(OC)cc4c3CCN2C(=O)CC1 [Example 9, 11-ethyl-3-methoxy-5,8,9, 10-tetrahydro-6H-benzo[f]pyrido[2,1-a]isoquinolin-8-one] | 43
28 | COc1ccc2[nH]c3c(c2c1)CCN1C(=O)CCC(c2ccc(C)cc2)=C31 [Example 18, 9-méthoxy-1-p-tolyl-2,3,4,6,7,12-hexahydroindolo[2,3-a] quinolizin-4-one] | 16
29 | COc1ccc2[nH]cc(CCNC(C)=O)c2c1 [Melatonin, N-acetyl-5-methoxytryptamine, reference compound] | 0
30 | CCCC(C)C1(CC)C(=O)NC(=O)NC1=O (stereo not drawn) [Pentobarbital, reference compound] | 36
31 | CN1C(=O)CN=C(c2ccccc2)c2cc(Cl)ccc21 [Diazepam, reference compound] | 24 to 70

Same assay, conditions: sleep time, 1.4 µmol/100 g IM

Row | Compound | ST [min]
32 | COc1ccc2c3c([nH]c2c1)C(C)=NCC3 [Harmaline, harmaline, reference compound] | 0
33 | COc1ccc2[nH]c3c(c2c1)CCN=C3C [10-methoxyharmalan, reference compound] | 0

Same assay, conditions: sleep time, 2 µmol/100 g IM, ranges = limit values of batch averages

Row | Compound | ST [min]
34 | COc1ccc2[nH]cc(CCNC(C)=O)c2c1 [Melatonin, N-acetyl-5-methoxytryptamine, reference compound] | 0
35 | CCC1CCC(=O)N2CCc3c([nH]c4ccc(OC)cc34)C12 (stereo not drawn) [Example 8, 9-methoxy-1-ethyl-1,2,3,4,6,7,12,12b-octahydroindolo [2,3-a] quinolizin-4-one] | 15
36 | CN1C(=O)CN=C(c2ccccc2)c2cc(Cl)ccc21 [Diazepam, reference compound] | 81 to 100

Source: patent EP1064284B1, “HYPNOTIC BETA-CARBOLINE DERIVATIVES, PROCESS FOR THEIR PREPARATION AND THEIR USE AS MEDICINAL PRODUCTS” (priority 1998, dated 1999)
